Experimental data as given in article PMC4336329 (PLoS ONE, 2015).
About 2,200 (0.71%) of roughly 310,000 compounds showed an effect of 50% or more. The effect is printed as a negative number. This is one part of the list.

What follows are molecules tested against human ether-à-go-go-related gene (hERG) potassium channel (human, UniProt Q12809) (assay: primary screen, population patch clamp on CHO cells stably expressing hERG).
Sequence of human ether-à-go-go-related gene (hERG) potassium channel (Q12809 whole entry, looked up): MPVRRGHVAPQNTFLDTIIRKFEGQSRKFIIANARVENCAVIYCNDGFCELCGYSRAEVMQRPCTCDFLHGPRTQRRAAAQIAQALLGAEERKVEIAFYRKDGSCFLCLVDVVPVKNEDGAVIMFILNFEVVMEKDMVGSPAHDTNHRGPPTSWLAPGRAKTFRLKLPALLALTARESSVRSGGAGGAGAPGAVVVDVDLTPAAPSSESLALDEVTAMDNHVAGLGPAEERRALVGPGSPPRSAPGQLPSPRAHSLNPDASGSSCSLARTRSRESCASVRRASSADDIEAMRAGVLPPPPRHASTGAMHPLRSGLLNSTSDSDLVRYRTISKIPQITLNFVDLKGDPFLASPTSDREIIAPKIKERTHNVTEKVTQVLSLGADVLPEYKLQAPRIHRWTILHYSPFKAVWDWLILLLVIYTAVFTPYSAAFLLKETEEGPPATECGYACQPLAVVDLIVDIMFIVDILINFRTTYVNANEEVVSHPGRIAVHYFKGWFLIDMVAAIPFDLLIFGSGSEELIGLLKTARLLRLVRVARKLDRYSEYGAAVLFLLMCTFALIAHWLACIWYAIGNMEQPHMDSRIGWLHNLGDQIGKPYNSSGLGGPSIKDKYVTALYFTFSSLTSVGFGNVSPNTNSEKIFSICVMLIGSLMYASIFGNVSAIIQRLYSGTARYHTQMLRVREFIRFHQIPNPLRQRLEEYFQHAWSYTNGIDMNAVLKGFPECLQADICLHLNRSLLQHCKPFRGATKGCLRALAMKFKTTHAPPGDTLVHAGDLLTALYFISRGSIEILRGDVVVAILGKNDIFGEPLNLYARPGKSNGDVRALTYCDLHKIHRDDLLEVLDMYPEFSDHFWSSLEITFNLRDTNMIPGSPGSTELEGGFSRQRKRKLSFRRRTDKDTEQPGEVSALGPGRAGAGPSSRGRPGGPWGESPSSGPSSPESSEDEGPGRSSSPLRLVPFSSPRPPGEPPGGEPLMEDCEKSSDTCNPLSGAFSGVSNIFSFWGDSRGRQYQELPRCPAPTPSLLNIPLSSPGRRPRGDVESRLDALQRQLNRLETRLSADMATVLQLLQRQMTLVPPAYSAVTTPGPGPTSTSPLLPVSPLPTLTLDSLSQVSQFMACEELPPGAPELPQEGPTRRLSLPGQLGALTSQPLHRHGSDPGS

SMILES	hERG current change (%, negative = inhibition) at 1uM [%]
CCCC[C@H](CN(N=O)[C@@H](Cc1ccccc1)CN(C)N=O)N(CCc1ccccc1)N=O.[Na+]	20.9
Cc1cc(F)c(F)cc1C(=O)N1CCCC1	13.9
Fc1cccc(Cl)c1Cn1nnc(-c2ccc(N3CCOCC3)cc2)n1	14.5
Cc1ccc(NC(=O)CSCC(=O)N2CCN(C(=O)c3ccco3)CC2)cc1	3.41
CCCC(=O)Nc1nc(C)c(-c2csc(Nc3cc(OC)ccc3OC)n2)s1	12.4
Cc1cc(C)n(/N=C/c2ccc(O)cc2)c(=O)c1C#N	11
CN(C)S(=O)(=O)c1ccc(C(=O)OCC(=O)c2ccc(OC(F)F)cc2OC(F)F)cc1	1.74
Cc1ccc(S(=O)(=O)N(C)C)cc1NC(=O)COC(=O)c1n[nH]c(=O)c2ccccc12	-20.1
CCOC(=O)C(C(=O)Nc1ccccc1)C1CCCCC1 (centres unmarked)	6.17
COC(=O)C1=C(C)N(Cc2ccccc2)C(=S)N[C@H]1c1ccccc1	6.71
Nc1cc(=O)[nH]c(SCC(=O)Nc2cccc(Cl)c2)n1	3.72
Cc1ccc(Cl)cc1NC(=O)COc1ccccc1	14.2
O=C(COC(=O)CCC(=O)c1ccccc1)Nc1nnc(-c2ccccc2)o1	11.3
O=C(NC1CCC1)C1CCC(=O)N(Cc2cccc(F)c2)C1 (centres unmarked)	-4.2
Cc1cc(Cl)ccc1C(=O)C1CCCN(C(=O)c2cnn(C(C)C)c2)C1 (centres unmarked)	5.17
C/C(=N/NC(=O)c1ccc(Br)o1)c1cccc(NC(=O)c2ccc(F)cc2)c1	-25
COc1ccccc1NC(=O)CSc1nnc(C2CCCCC2)n1-c1ccccc1	2.23
CC(C)(C)C(=O)Nc1ccc(C(=O)Nc2cccnc2)cc1	6.36
O=C(CN1CCCC1c1cccs1)N1CCN(S(=O)(=O)c2cccc(F)c2)CC1 (centres unmarked)	7.94

SMILES	hERG current change (%, negative = inhibition) at 1uM [%]
COC/C=C/C1=CC2=CC(=O)C(C)(OC(=O)c3cnc4ccccc4n3)C(=O)C2=CN1CCN1CCOCC1 (centres unmarked)	14.2
COc1ccc(CSCCN)cc1Cl.Cl	9.92
CN(C)N=C1c2cc(S(=O)(=O)N3CCOCC3)ccc2-c2ccc(S(=O)(=O)N3CCOCC3)cc21	7.08
Cc1ccc(S(=O)(=O)N2CCN(C(=O)CCC(=O)N3CCc4ccccc43)CC2)cc1	3.11
CN1CCN(/N=C/c2ccc(OCc3ccccc3)cc2)CC1	6.26
COc1ccc2cc(CCOC3CCCCO3)ncc2c1 (centres unmarked)	14.6
CCCCCc1nc2c(c(=O)c3ccccc3n2C)c(=O)n1Cc1ccc(OC)cc1	10.9
CCCCn1c(CN2CCN(c3cccc(Cl)c3)CC2)nc2c1c(=O)n(C)c(=O)n2C	-13.7
Oc1ccc(CNCC2COc3ccccc3O2)cc1 (centres unmarked)	11.7
CCCCn1c(SCC(=O)N2CCCC2=O)nc2cc(S(N)(=O)=O)ccc21	2.33
COc1ccc(NC(=O)c2cc(-c3ccc(C)o3)nc3ccccc23)cc1	17
CC(C)c1nc2sc3c(c2c(=O)n1N)CC(C)(C)OC3	13.5
COc1ccc(NC(=S)N2CCc3ccccc32)cc1OC	35.8
Nn1c(Cc2cccc3ccccc23)nnc1SCc1c(Cl)cccc1Cl	14.5
N#CCC(=O)NCCCOC(=O)Nc1ccc(Cl)c(Cl)c1	6.85
Cc1ccccc1NC(=O)c1ccco1	13.1
O=C(c1ccc(Cl)c(Cl)c1)N1CCC(=O)N(C(CO)Cc2ccccc2)CC1 (centres unmarked)	18
CC(C)OC(=O)/C(=C\c1ccc2c(c1)c1ccccc1n2C)NC(=O)c1ccccc1	12.7
CCOC(=O)C1CCN(S(=O)(=O)c2ccc3c(c2)CC(C)N3C(=O)C2CC2)CC1 (centres unmarked)	11.7

SMILES	hERG current change (%, negative = inhibition) at 1uM [%]
Cc1ccc(NC(=O)C[n+]2cc(-c3ccccc3)n3c2CCC3)c(C)c1.[Cl-]	5.45
CC(=O)Nc1ccc(S(=O)(=O)NCCC(=O)N2CCC(Cc3ccccc3)CC2)cc1	-2.9
Cc1cc(C)nc(SCC(=O)N/N=C/c2cccn2-c2cccc(C(F)(F)F)c2)n1	-5.16
N#Cc1ccc(-c2nc3ccc(Br)cc3c(=O)n2O)cc1	13.7
O=C(Nc1ccc(N2CCOCC2)c(Cl)c1)c1ccc(-n2cnnc2)cc1Cl	7.34
Cc1cc(N2CCOCC2)n2ncc(-c3ccc(Cl)cc3)c2n1	14.8
Clc1ccc2c(NCc3ccccn3)ccnc2c1	-8.88
CCOc1ccc(NC(=O)N(CCN2CCOCC2)Cc2ccc3c(c2)CCCN3CC)cc1	2.35
Cc1cc(S(=O)(=O)n2[nH]c(=O)c(CCO)c2C)c(Cl)cc1Cl	14.1
CC1=CC(C)(C)[N+](C)=CN1c1ccccc1.[I-]	3.93
Cc1nnc(NC(=O)c2cc3ccccc3o2)s1	2.11
C[C@@]12C(=O)N(c3ccc(C(F)(F)F)cc3)C(=O)N1[C@@H]1c3ccccc3OC[C@@H]1[C@H]2c1ccccc1	18.5
CCC(=O)N1c2ccc(S(=O)(=O)NCCc3ccc(OC)c(OC)c3)cc2CC1C (centres unmarked)	8.31
CC(C)Cc1c(O)nc(SCC(=O)Nc2ccc3c(c2)CCC3)[nH]c1=O	8.07
CCn1cc(CCC(=O)NCCN2CCOCC2)c2ccccc21	18.8
CCOc1cc(C=O)ccc1OCc1cc(=O)n2cc(C)ccc2n1	9.17
CCn1c(SCC(=O)c2ccc(O)c(O)c2)nnc1-c1ccccc1	1.18
Cn1c(=O)c2c(nc(CN3CCC(C(N)=O)CC3)n2CCCc2ccccc2)n(C)c1=O	10
